PMC3749138
No constants are given. Whether binding was seen depends on the method and setting. For some assays here: In cells and extracts the contact can be indirect. Some entries that bind do so weakly or less than the wild type. For some assays here: Tags and fused reporters may be left off the sequences shown.

Sequences of proteins named here, by UniProt entry; tags and fusion partners are left off.
UniProt O60573: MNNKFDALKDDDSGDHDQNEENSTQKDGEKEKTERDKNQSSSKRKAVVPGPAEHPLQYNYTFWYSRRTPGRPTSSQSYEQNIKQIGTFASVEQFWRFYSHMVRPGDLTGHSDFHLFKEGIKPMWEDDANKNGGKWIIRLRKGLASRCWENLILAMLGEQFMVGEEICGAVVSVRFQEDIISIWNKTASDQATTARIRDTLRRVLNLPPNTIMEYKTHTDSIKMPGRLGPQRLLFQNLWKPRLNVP

B1: pGADT7-4E-T (human 4E-T, yeast two-hybrid fusion) (protein, UniProt Q9NRA8 1-985)
chain: MDRRSMGETESGDAFLDLKKPPASKCPHRYTKEELLDIKELPHSKQRPSCLSEKYDSDGVWDPEKWHASLYPASGRSSPVESLKKELDTDRPSLVRRIVDPRERVKEDDLDVVLSPQRRSFGGGCHVTAAVSSRRSGSPLEKDSDGLRLLGGRRIGSGRIISARTFEKDHRLSDKDLRDLRDRDRERDFKDKRFRREFGDSKRVFGERRRNDSYTEEEPEWFSAGPTSQSETIELTGFDDKILEEDHKGRKRTRRRTASVKEGIVECNGGVAEEDEVEVILAQEPAADQEVPRDAVLPEQSPGDFDFNEFFNLDKVPCLASMIEDVLGEGSVSASRFSRWFSNPSRSGSRSSSLGSTPHEELERLAGLEQAILSPGQNSGNYFAPIPLEDHAENKVDILEMLQKAKVDLKPLLSSLSANKEKLKESSHSGVVLSVEEVEAGLKGLKVDQQVKNSTPFMAEHLEETLSAVTNNRQLKKDGDMTAFNKLVSTMKASGTLPSQPKVSRNLESHLMSPAEIPGQPVPKNILQELLGQPVQRPASSNLLSGLMGSLEPTTSLLGQRAPSPPLSQVFQTRAASADYLRPRIPSPIGFTPGPQQLLGDPFQGMRKPMSPITAQMSQLELQQAALEGLALPHDLAVQAANFYQPGFGKPQVDRTRDGFRNRQQRVTKSPAPVHRGNSSSPAPAASITSMLSPSFTPTSVIRKMYESKEKSKEEPASGKAALGDSKEDTQKASEENLLSSSSVPSADRDSSPTTNSKLSALQRSSCSTPLSQANRYTKEQDYRPKATGRKTPTLASPVPTTPFLRPVHQVPLVPHVPMVRPAHQLHPGLVQRMLAQGVHPQHLPSLLQTGVLPPGMDLSHLQGISGPILGQPFYPLPAASHPLLNPRPGTPLHLAMVQQQLQRSVLHPPGSGSHAAAVSVQTTPQNVPSRSGLPHMHSQLEHRPSQRSSSPVGLAKWFGSDVLQQPLPSMPAKVISVDELEYRQ
B2: 4E-T (endogenous) (protein, UniProt Q9NRA8 1-985)
chain: MDRRSMGETESGDAFLDLKKPPASKCPHRYTKEELLDIKELPHSKQRPSCLSEKYDSDGVWDPEKWHASLYPASGRSSPVESLKKELDTDRPSLVRRIVDPRERVKEDDLDVVLSPQRRSFGGGCHVTAAVSSRRSGSPLEKDSDGLRLLGGRRIGSGRIISARTFEKDHRLSDKDLRDLRDRDRERDFKDKRFRREFGDSKRVFGERRRNDSYTEEEPEWFSAGPTSQSETIELTGFDDKILEEDHKGRKRTRRRTASVKEGIVECNGGVAEEDEVEVILAQEPAADQEVPRDAVLPEQSPGDFDFNEFFNLDKVPCLASMIEDVLGEGSVSASRFSRWFSNPSRSGSRSSSLGSTPHEELERLAGLEQAILSPGQNSGNYFAPIPLEDHAENKVDILEMLQKAKVDLKPLLSSLSANKEKLKESSHSGVVLSVEEVEAGLKGLKVDQQVKNSTPFMAEHLEETLSAVTNNRQLKKDGDMTAFNKLVSTMKASGTLPSQPKVSRNLESHLMSPAEIPGQPVPKNILQELLGQPVQRPASSNLLSGLMGSLEPTTSLLGQRAPSPPLSQVFQTRAASADYLRPRIPSPIGFTPGPQQLLGDPFQGMRKPMSPITAQMSQLELQQAALEGLALPHDLAVQAANFYQPGFGKPQVDRTRDGFRNRQQRVTKSPAPVHRGNSSSPAPAASITSMLSPSFTPTSVIRKMYESKEKSKEEPASGKAALGDSKEDTQKASEENLLSSSSVPSADRDSSPTTNSKLSALQRSSCSTPLSQANRYTKEQDYRPKATGRKTPTLASPVPTTPFLRPVHQVPLVPHVPMVRPAHQLHPGLVQRMLAQGVHPQHLPSLLQTGVLPPGMDLSHLQGISGPILGQPFYPLPAASHPLLNPRPGTPLHLAMVQQQLQRSVLHPPGSGSHAAAVSVQTTPQNVPSRSGLPHMHSQLEHRPSQRSSSPVGLAKWFGSDVLQQPLPSMPAKVISVDELEYRQ

Tests used:
[1] = target: pGBKT7-4E2 (human eIF4E2, yeast two-hybrid fusion) (human) (UniProt O60573); assay: two-hybrid; GAL4-based system (Clontech), AH109 cells; pGBKT7 and pGADT7 constructs; interaction checked by growth on high stringency -Ade/-His/-Leu/-Trp dropout medium
[2] = target: HA-eIF4E2 (human) (UniProt O60573); assay: co-IP; chicken anti-eIF4E2 on Chicken IgY Precipitating Resin with 1 mg lysate of HeLa cells transfected with HA-eIF4E2, NET buffer, 4°C; western blotting for 4E-T

Binder | binding [1] | binding [2]
B1 | binds | 
B2 |  | binds
